To fix the notation:
B1: carB; numbered along this chain (parent)
chain: MPKRTDIKSILILGAGPIVIGQACEFDYSGAQACKALREEGYRVILVNSNPATIMTDPEMADATYIEPIHWEVVRKIIEKERPDAVLPTMGGQTALNCALELERQGVLEEFGVTMIGATADAIDKAEDRRRFDVAMKKIGLETARSGIAHTMEEALAVAADVGFPCIIRPSFTMGGSGGGIAYNREEFEEICARGLDLSPTKELLIDESLIGWKEYEMEVVRDKNDNCIIVCSIENFDAMGIHTGDSITVAPAQTLTDKEYQIMRNASMAVLREIGVETGGSNVQFAVNPKNGRLIVIEMNPRVSRSSALASKATGFPIAKVAAKLAVGYTLDELMNDITGGRTPASFEPSIDYVVTKIPRFNFEKFAGANDRLTTQMKSVGEVMAIGRTQQESLQKALRGLEVGATGFDPKVSLDDPEALTKIRRELKDAGADRIWYIADAFRAGLSVDGVFNLTNIDRWFLVQIEELVRLEEKVAEVGITGLNADFLRQLKRKGFADARLAKLAGVREAEIRKLRDQYDLHPVYKRVDTCAAEFATDTAYMYSTYEEECEANPSTDREKIMVLGGGPNRIGQGIEFDYCCVHASLALREDGYETIMVNCNPETVSTDYDTSDRLYFEPVTLEDVLEIVRIEKPKGVIVQYGGQTPLKLARALEAAGVPVIGTSPDAIDRAEDRERFQHAVERLKLKQPANATVTAIEMAVEKAKEIGYPLVVRPSYVLGGRAMEIVYDEADLRRYFQTAVSVSNDAPVLLDHFLDDAVEVDVDAICDGEMVLIGGIMEHIEQAGVHSGDSACSLPAYTLSQEIQDVMRQQVQKLAFELQVRGLMNVQFAVKNNEVYLIEVNPRAARTVPFVSKATGVPLAKVAARVMAGKSLAEQGVTKEVIPPYYSVKEVVLPFNKFPGVDPLLGPEMRSTGEVMGVGRTFAEAFAKAQLGSNSTMKKHGRALLSVREGDKERVVDLAAKLLKQGFELDATHGTAIVLGEAGINPRLVNKVHEGRPHIQDRIKNGEYTYIINTTSGRRAIEDSRVIRRSALQYKVHYDTTLNGGFATAMALNADATEKVISVQEMHAQIK
B2: nrdB; numbered along this chain (parent)
chain: MAYTTFSQTKNDQLKEPMFFGQPVNVARYDQQKYDIFEKLIEKQLSFFWRPEEVDVSRDRIDYQALPEHEKHIFISNLKYQTLLDSIQGRSPNVALLPLISIPELETWVETWAFSETIHSRSYTHIIRNIVNDPSVVFDDIVTNEQIQKRAEGISSYYDELIEMTSYWHLLGEGTHTVNGKTVTVSLRELKKKLYLCLMSVNALEAIRFYVSFACSFAFAERELMEGNAKIIRLIARDEALHLTGTQHMLNLLRSGADDPEMAEIAEECKQECYDLFVQAAQQEKDWADYLFRDGSMIGLNKDILCQYVEYITNIRMQAVGLDLPFQTRSNPIPWINTWLVSDNVQVAPQEVEVSSYLVGQIDSEVDTDDLSNFQL
B3: pth; numbered along this chain (parent)
chain: MTIKLIVGLANPGAEYAATRHNAGAWFVDLLAERLRAPLREEAKFFGYTSRVTLGGEDVRLLVPTTFMNLSGKAVAAMASFFRINPDEILVAHDELDLPPGVAKFKLGGGHGGHNGLKDIISKLGNNPNFHRLRIGIGHPGDKNKVVGFVLGKPPVSEQKLIDEAIDEAARCTEMWFTDGLTKATNRLHAFKAQ

± gives the standard deviation of the averaged measurements. Laboratory Escherichia coli strains with one amino-acid change in an essential protein, pooled on minimal glucose agar with carbenicillin or gentamicin at twice the control MIC (plus kanamycin and chloramphenicol for the plasmids), 48 h. Fold change of barcode share against drug-free plates; higher = less susceptible. Active = above 20 in both replicates (the paper's putatively resistant). '<' = one read or none on drug, '>' = one read or none on a drug-free plate. Shares are relative, so most strains fall below 1 when a few take over. Listed are strains with at least 15 reads on both drug-free plates, and hits; most hits rest on fewer reference reads. Replicate rank correlation about 0.5. Edits are read from barcodes.

The variants in the first data set derive from B1. As to the kind of experiment: barcode share on antibiotic plates over drug-free plates; higher = less susceptible. As to conditions: with Escherichia coli (laboratory strain); antibiotic: carbenicillin; 2× MIC (3.1 µg/mL). The method, then:
(§1)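 A pool of E. coli strains, each edited to carry one amino-acid change in an essential protein, was grown for 48 h on minimal glucose agar with or without antibiotic; strain barcodes were sequenced; mean of two replicates.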
Consider M598A, for which the “fold change of barcode share” value was found to be 0.643 ± 0.095.
As for M598Q, the “fold change of barcode share” value came to 0.929 ± 0.08.
As for M918W, the “fold change of barcode share” value turned out to be 0.347 ± 0.04.
On the same count and under the same terms, then M918A, with 0.3335 ± 0.0021.
On to M918D, for which the “fold change of barcode share” value was determined as 0.302 ± 0.0037.
On the same count and under the same terms, for M918P the value was 1.85 ± 0.24; for M918Q, 0.2623 ± 0.0024; for I352Q, 0.35 ± 0.1.
In the case of I352P, the “fold change of barcode share” value was 0.294 ± 0.13.
Regarding I352A, the “fold change of barcode share” value was found to be 0.241 ± 0.07.
The same measure, in the same setting: for I352D the value was 0.204 ± 0.038; for L13A, 0.262 ± 0.038; for L13W, 0.336 ± 0.042.
L13P: the “fold change of barcode share” value was 0.1822 ± 0.00036.
On the same count and under the same terms, then V322Q, with 0.259 ± 0.017; and V322W, with 0.402 ± 0.0075; and V322A, with 0.208 ± 0.016.

Staying with this data set, now noted: with Escherichia coli (laboratory strain); antibiotic: gentamicin; 2× MIC (MIC 0.45 µg/mL).
Take M598A: the “fold change of barcode share” value amounted to 0.0238 ± 0.023.
Regarding M598Q, the “fold change of barcode share” value is 0.0188 ± 0.014.
Take M918W: the “fold change of barcode share” value came out at 0.0121 ± 0.0028.
As to M918A, the “fold change of barcode share” value worked out at 0.0154 ± 0.0037.
M918D: the “fold change of barcode share” value is 0.0184 ± 0.00087.
In the case of M918Q, the “fold change of barcode share” value is 0.0364 ± 0.034.
As to I352Q, the “fold change of barcode share” value worked out at 0.0157 ± 0.004.
In the case of I352P, the “fold change of barcode share” value was found to be 0.00934 ± 0.0043.
On the same count and under the same terms, for I352A the value was 0.0113 ± 0.01; for I352D, 0.0453 ± 0.051.
V381D: the “fold change of barcode share” value was under 0.0128.
As for V381A, the “fold change of barcode share” value was 0.0155 ± 0.011.
The same measure, in the same setting: then V381Q, with 0.0205 ± 0.016.
With L13A, the “fold change of barcode share” value turned out to be 0.0117 ± 0.0068.
Same read-out and setting: then L13P, with 0.0184 ± 0.013.
V322Q: the “fold change of barcode share” value is 0.00836 ± 0.0014.
Regarding V322W, the “fold change of barcode share” value stood at 0.00572 ± 0.0028.
Still for that read-out and setting: then V322A, with 0.00522 ± 0.0029.

The next data set covers variants of B2. Described as above. As to conditions: with Escherichia coli (laboratory strain); antibiotic: gentamicin; 2× MIC (MIC 0.45 µg/mL). The method, then: as §1
On to I127W, for which the “fold change of barcode share” value is under 0.0171.
As to L97P, the “fold change of barcode share” value was found to be 0.756 ± 1.1.
As for L97W, the “fold change of barcode share” value came out at 0.0056 ± 0.004.
For L97Q, the “fold change of barcode share” value is under 0.00577.
On the same count and under the same terms, then L97D, with 0.0113 ± 0.0099; and L97A, with 0.0149 ± 0.016; and I232A, with under 0.0125.
As to L99W, the “fold change of barcode share” value is under 0.00658.
In the case of L99P, the “fold change of barcode share” value is under 0.00922.
Take L99A: the “fold change of barcode share” value was under 0.00495.
As to L99Q, the “fold change of barcode share” value is under 0.00474.
For L99D, the “fold change of barcode share” value was under 0.00797.
Consider V24A, for which the “fold change of barcode share” value amounted to 0.0274 ± 0.026.
V24P: the “fold change of barcode share” value came out at 0.00721 ± 0.0036.
As for V24Q, the “fold change of barcode share” value was under 0.00826.
In the case of F217W, the “fold change of barcode share” value amounted to 0.24 ± 0.32.
On the same count and under the same terms, then I100P, with under 0.0121; and I100A, with 0.0101 ± 0.0083.
In the case of I100Q, the “fold change of barcode share” value is under 0.00752.
L250W: the “fold change of barcode share” value worked out at 0.0617 ± 0.05.
As for L250Q, the “fold change of barcode share” value came out at 0.0868 ± 0.061.
For L250A, the “fold change of barcode share” value was determined as 0.012 ± 0.0019.

The same data set, now with this note: with Escherichia coli (laboratory strain); antibiotic: carbenicillin; 2× MIC (3.1 µg/mL).
As to L97P, the “fold change of barcode share” value is 0.1 ± 0.047.
In the case of L97W, the “fold change of barcode share” value was found to be 0.436 ± 0.03.
As for L97Q, the “fold change of barcode share” value was determined as 0.193 ± 0.15.
As for L97D, the “fold change of barcode share” value was 0.165 ± 0.011.
On the same count and under the same terms, then L97A, with 0.295 ± 0.089.
I232A: the “fold change of barcode share” value came out at 0.371 ± 0.12.
Take L99W: the “fold change of barcode share” value was 0.224 ± 0.081.
On the same count and under the same terms, then L99P, with 0.118 ± 0.0012; and L99A, with 0.18 ± 0.054.
On to L99Q, for which the “fold change of barcode share” value is 0.294 ± 0.053.
L99D: the “fold change of barcode share” value is 0.25 ± 0.1.
With V24A, the “fold change of barcode share” value came out at 0.717 ± 0.75.
V24P: the “fold change of barcode share” value was determined as 0.749 ± 0.32.
With V24Q, the “fold change of barcode share” value came to 0.188 ± 0.033.
For F217W, the “fold change of barcode share” value came out at 0.0765 ± 0.0066.
For the variant I100P, the “fold change of barcode share” value came out at 0.131 ± 0.091.
Still for that read-out and setting: then I100A, with 0.5 ± 0.16; and I100Q, with 0.166 ± 0.019; and L250W, with 0.0377 ± 0.003.
Still for that read-out and setting: then L250Q, with 0.144 ± 0.12; and L250A, with 0.171 ± 0.096.

A further data set covers variants of B3. The data set is described as above. As to conditions: with Escherichia coli (laboratory strain); antibiotic: carbenicillin; 2× MIC (3.1 µg/mL). The method, then:
as §1
With V91Q, the “fold change of barcode share” value was 0.0689 ± 0.041.
For L62D, the “fold change of barcode share” value worked out at 0.386 ± 0.049.
As for F27P, the “fold change of barcode share” value stood at 0.417 ± 0.042.
Consider F27A, for which the “fold change of barcode share” value was 0.25 ± 0.0029.
As to F27W, the “fold change of barcode share” value was 0.317 ± 0.092.
Turning to F27D, the “fold change of barcode share” value came out at 0.306 ± 0.049.
Still for that read-out and setting: then F27Q, with 0.394 ± 0.043.
Turning to L31P, the “fold change of barcode share” value turned out to be 0.307 ± 0.054.
Take L31W: the “fold change of barcode share” value came to 0.322 ± 0.023.
With L31D, the “fold change of barcode share” value came to 0.634 ± 0.35.
Take L31Q: the “fold change of barcode share” value worked out at 0.4 ± 0.15.
In the case of L31A, the “fold change of barcode share” value worked out at 0.437 ± 0.0084.
Consider V28D, for which the “fold change of barcode share” value was found to be 0.451 ± 0.12.
On to V28P, for which the “fold change of barcode share” value was found to be 0.369 ± 0.1.
Same read-out and setting: for V28A the value was 0.425 ± 0.028; for V28Q, 0.325 ± 0.017.
On the same count and under the same terms, then V28W, with 1.12 ± 0.73.
In the case of L90Q, the “fold change of barcode share” value was 0.149 ± 0.041.

Still in this data set, the particulars now being: with Escherichia coli (laboratory strain); antibiotic: gentamicin; 2× MIC (MIC 0.45 µg/mL).
Regarding L62W, the “fold change of barcode share” value is under 0.0195.
For L62D, the “fold change of barcode share” value is under 0.0192.
For the variant L62A, the “fold change of barcode share” value is under 0.0192.
Regarding F27P, the “fold change of barcode share” value worked out at 0.0044 ± 0.00068.
The same measure, in the same setting: then F27A, with 0.0269 ± 0.026.
In the case of F27W, the “fold change of barcode share” value was found to be 0.00857 ± 0.0074.
As for F27D, the “fold change of barcode share” value was 0.0401 ± 0.031.
Turning to F27Q, the “fold change of barcode share” value was 0.00694 ± 0.005.
The same measure, in the same setting: for L31P the value was under 0.00855.
Consider L31W, for which the “fold change of barcode share” value is under 0.00594.
Consider L31D, for which the “fold change of barcode share” value came out at 0.0386 ± 0.0089.
With L31Q, the “fold change of barcode share” value turned out to be 0.0224 ± 0.0016.
In the case of L31A, the “fold change of barcode share” value is under 0.00919.
On the same count and under the same terms, then V28D, with 0.0101 ± 0.0024; and V28P, with 0.0106 ± 0.0097; and V28A, with under 0.00477.
As for V28Q, the “fold change of barcode share” value is under 0.0035.

The values are drawn from the supplement of paper PMC11876631.
